Results as given in ChEMBL document CHEMBL1156829.
Over roughly 5,400 compounds, “IFI” has its median near 2; the highest 2% begin near 22. The list shows a part of the results.

assay: NOVARTIS: Inhibition Frequency Index (IFI) - the number of HTS assays where a compound showed > 50% inhibition/induction, expressed as a percentage of the number of assays in which the compound was tested.; type: functional

Row | SMILES | IFI [%]
1 | CC(NCCN1CCNCC1)c1cc(C(C)(C)C)cc2c1CCC2(C)C (stereo not given) | 6.67
2 | O=c1[nH]c(N2CCCC2)nc2c1CCN(Cc1coc3ccccc3c1=O)C2 | 0
3 | O=C(NC1CC1)C1CCN(c2cccc3c2C(=O)N(Cc2cccc(C(F)(F)F)c2)C3=O)CC1 | 4.24
4 | C=CC[n+]1c(C=C2C=CC=CN2C)sc2ccccc21 | 7.14
5 | CCc1c(C)c(C#N)c2nc3ccccc3n2c1NCc1ccco1 | 3.65
6 | CCOc1ccc(-c2c[n+](-c3ccccc3)c3n2CCS3)cc1 | 7.69
7 | COc1ccc(C2c3[nH]c4ccccc4c3C[C@@H]3C(=O)N(CCC(C)C)CC(=O)N23)cc1 (stereo not given in full) | 0
8 | CCOC(=O)c1ccc(-c2c(-c3cc(CC)c(OC)cc3O)noc2C)o1 | 2.44
9 | COc1cccc(CNc2ncnc3sc(C(=O)NCC4COCCO4)c(C)c23)c1OC (stereo not given) | 1
10 | CSc1c(C(=O)Nc2ccc(Br)cc2)ccc2c1C(=O)c1ccccc1C2=O | 1.35
11 | COc1ccc(NC(=O)C2=C(C)Nc3c(C(=O)Nc4ccc(C)cc4)cnn3C2c2cccc(Cl)c2)cc1 (stereo not given) | 0
12 | COc1ccc(C2C(C(=O)Nc3cnc4ccccc4c3)c3ccccc3C(=O)N2Cc2ccc(F)cc2)cc1 (stereo not given) | 1.18
13 | CSc1nc2sc3c(c2c(=O)n1-c1ccccc1)CCN(CCc1ccccc1)C3 | 9.8
14 | Cc1cc(Nc2ccc(C)c(C)c2)n2nc(C)nc2n1 | 0
15 | O=C(C1CCN(C(c2ccc(F)cc2)c2ccc(F)cc2)CC1)N1CCCC1 | 1.96
16 | CC(C)(C)CC(C)(C)Nc1c(-c2ccccc2OC(=O)c2ccc(Cl)c(Cl)c2)nc2ccccn12 | 4.72
17 | Cc1ccc(-n2nnnc2SCc2nc(-c3cccc([N+](=O)[O-])c3)no2)c(C)c1 | 1.5
18 | CC1(C)O[C@@H]2OC([C@@H](O)CNc3ccc([N+](=O)[O-])cc3[N+](=O)[O-])C(O)[C@@H]2O1 (stereo not given in full) | 0.746
19 | O=C(NCCc1ccccc1)c1cnc(NCCCn2ccnc2)nc1NCC1CCCCC1 | 1.91
20 | O=C(COc1ccccc1)NC(c1ccc([N+](=O)[O-])cc1)c1cc(Cl)c2cccnc2c1O (stereo not given) | 0

Row | SMILES | IFI [%]
21 | COc1ccc(-c2cn(-c3ccc(OC)cc3)c(SCC(=O)Nc3ccccc3)n2)cc1 | 0
22 | CC(=NNC(=O)/C(=C/c1ccc([N+](=O)[O-])cc1)NC(=O)c1ccccc1)c1ccccn1 | 10.4
23 | COc1ccc(CCNC(=O)c2cc(S(=O)(=O)N3CC(C)CC(C)C3)ccc2Sc2ccc(F)cc2)cc1OC (stereo not given) | 0
24 | CC(C)c1ccc(NC(=O)c2ccc(NCCCN(C)Cc3ccccc3)c([N+](=O)[O-])c2)cc1 | 0
25 | Cc1ccn2c(NC(C)(C)CC(C)(C)C)c(-c3ccccc3OC(=O)c3ccc4ccccc4c3)nc2c1 | 5.26
26 | COc1ccc(-c2c[n+](CC(=O)c3ccc(Cl)cc3)c3n2CCC3)cc1 | 5
27 | CN(C)CCNc1c2c(nc3ccccc13)CCC2 | 2.3
28 | CN(C)CCNC(=S)Nc1cccc(C(F)(F)F)c1 | 0
29 | Cc1ccc(C(=O)NCCN2CCCCC2)cn1 | 0.69
30 | COc1ccc(CN(CC2CCN(C(=O)c3ccccc3Cl)CC2)C(=O)c2ccc(Cl)cc2Cl)cc1 | 0.935
31 | CCN1/C(=C/c2sc3ccc(I)cc3[n+]2CC)C=Cc2ccccc21 | 15.4
32 | CCOC(=O)c1cnc2c(OC)cccc2c1Nc1cc(C)c(Cl)cc1OC | 0
33 | COC(=O)C1=C(C)N/C(=C\c2cc(C)n(-c3cc(C)ccc3OC)c2C)C1=O | 0
34 | FC(F)(F)c1cccc(-c2cncc(N3CCN(c4ccccn4)CC3)n2)c1 | 0
35 | COCC(=O)Oc1ccccc1-c1nc2cc(C)ccn2c1NC(C)(C)CC(C)(C)C | 3.74
36 | CC(C)CN1CCN(c2nc(C#N)c3c(c2C(=S)NC2CCCCC2)CC(C)(C)OC3)CC1 | 0
37 | COC(=O)C1=C(C)NC2=C(C(=O)CC(c3ccc(OC)c(OC)c3)C2)C1c1ccc(F)cc1 (stereo not given) | 7.06
38 | CCN(CC)c1ccc2cc(C(C)=NNC(N)=S)c(=O)oc2c1 | 0
39 | c1cncc(-c2nc3cc(-c4ccc5[nH]c(-c6cccnc6)nc5c4)ccc3[nH]2)c1 | 5.56
40 | CCCCCCCC(O)(c1ccc(OCC)cc1)C(CN1CCCCC1)c1ccccc1 (stereo not given) | 2.86

Row | SMILES | IFI [%]
41 | CCN1CCN(c2nc3ccccn3c(=O)c2/C=C2\SC(=S)N(C(C)C)C2=O)CC1 | 0
42 | Cc1nc2c(C)c(-c3ccccc3)nn2c(O)c1C | 1.54
43 | Cc1cc(/C=C2\SC(=Nc3ccccc3)N(C3CCCCC3)C2=O)c(C)n1-c1ccc(F)cc1 | 1.15
44 | Cc1cccnc1NC(c1ccc([N+](=O)[O-])cc1)c1ccc2cccnc2c1O (stereo not given) | 7.69
45 | COC(=O)C1=C(C)NC2=C(C(=O)CC(c3ccc(Cl)cc3)C2)C1c1ccccc1 (stereo not given) | 2.3
46 | CCN(CC)CCNC(=O)c1cc(-c2ccc(Cl)cc2)cc(-n2cnnn2)c1 | 1.72
47 | O=C1NC(=S)N/C1=C/c1ccc(C(F)(F)F)cc1 | 0
48 | CCOC(=O)N1CCc2c(sc(NCc3ccc(C)o3)c2C(=O)Nc2ccc(OC)cc2OC)C1 | 0
49 | Cc1c(C(=O)N2CCC3(CCN(C)C3)C2)cnn1-c1ncc2c(n1)-c1ccccc1SC2 (stereo not given) | 3
50 | Brc1ccc2c(c1)c1ccccc1n2CC1CO1 (stereo not given) | 8.33
51 | CCCN1CCN(C(=O)CCNC(=O)Cn2cnc3ccccc3c2=O)CC1 | 1.19
52 | Clc1ccc(-c2c[n+](-c3ccccc3)c3n2CCS3)cc1 | 0.725
53 | CCN(CC)CCCN(Cc1cc2cc(OC)ccc2[nH]c1=O)C(=S)Nc1ccc(C)cc1 | 5.41
54 | COc1cc(NC(C)CCCN(Cc2ccc(N(C)C)cc2)C(=O)c2ccc(F)cc2)c2ncccc2c1 (stereo not given) | 5.61
55 | CCCCCN(C(=O)CCc1ccccc1)C(CC)c1nc2ccccc2c(=O)n1-c1ccc(Cl)cc1C (stereo not given) | 2.91
56 | O=C(CCCn1c2ccccc2c(=O)c2ccccc21)NCc1ccc(F)cc1 | 0
57 | CC1=C(C(=O)OC(C)C)C(c2ccc([N+](=O)[O-])cc2)C2=C(CCCC2=O)N1 (stereo not given) | 1.14
58 | Cc1ccc(-c2nnc(Nc3ccc(F)cc3)c3ccccc23)cc1S(=O)(=O)NCC1CCCO1 (stereo not given) | 6.06
59 | Cc1cc(S(=O)(=O)NC(Cc2ccc([N+](=O)[O-])cc2)C(=O)O)c(Cl)cc1Cl (stereo not given) | 1.03
60 | Cc1cc(Cl)ccc1OC(C)C(=O)N1CCc2ccccc21 (stereo not given) | 3.23
